Among the data in paper PMC12820563, “FoxP3 forms a head-to-head dimer in vivo and stabilizes its multimerization on adjacent microsatellites” are binding signal values, retold here.

This is one part of the list.

The target in this test is T1, MBP-FoxP1dN (Mus musculus, UniProt P58462 326-579).
T1 sequence: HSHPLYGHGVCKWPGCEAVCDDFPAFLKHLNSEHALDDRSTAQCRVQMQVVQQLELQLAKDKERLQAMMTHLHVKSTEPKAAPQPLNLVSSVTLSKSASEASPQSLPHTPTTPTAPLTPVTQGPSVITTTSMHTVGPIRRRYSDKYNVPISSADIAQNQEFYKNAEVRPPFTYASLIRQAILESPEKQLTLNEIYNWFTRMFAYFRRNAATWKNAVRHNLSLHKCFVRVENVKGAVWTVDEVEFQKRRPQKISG
Put plainly: PD-seq (MBP pull-down with sequencing); 20 mM Tris-HCl pH 7.5, 100 mM NaCl, 1.5 mM MgCl2, 0.4 uM protein, 0.1 uM dsDNA library, 30 min, room temperature, amylose pull-down; high values mean tight binding. The conditions noted are these: protein: recombinant; tags: His6-MBP; chain copies: 2; dsDNA, one strand shown. The procedure, abridged: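 Amylose resin was used to capture complexes formed during 30 min at room temperature in Tris pH 7.5 buffer with NaCl and MgCl2 between 0.4 µM His6-MBP-tagged mouse FoxP3 or FoxP1 fragment lacking the N-terminus, expressed in E. coli, and 0.1 µM Klenow-filled double-stranded degenerate DNA library. After three washes, the DNA was released with proteinase K, barcoded by PCR and sequenced on Illumina. Binding is pooled-replicate reads-per-million enrichment, pull-down over input.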
For “GATGATTGTTCTCCCAGCTGATGAATTAGCAGAATCGAGTAAACAAATTTTCCTAATCTTTCTGTTCAAGCGCCATCTAC”, the binding signal was 0.993 RPM ratio (pull-down/input).
In the case of “GATGATTGTTCTCCCAGCTGATGAATTGTATGGCTCGAGTAAACAAATTTTCCTAATCTTTCTGTTCAAGCGCCATCTAC” it was 0.905 RPM ratio (pull-down/input); in that of “GATGATTGTTCTCCCAGCTGATGAATTCATACAATCGAGTAAACAAATTTTCCTAATCTTTCTGTTCAAGCGCCATCTAC”, 1.26 RPM ratio (pull-down/input).
In the case of “GATGATTGTTCTCCCAGCTGATGAATTCTTCTGGTCGAGTAAACAAATTTTCCTAATCTTTCTGTTCAAGCGCCATCTAC” it was 0.855 RPM ratio (pull-down/input); in that of “GATGATTGTTCTCCCAGCTGATGAATTATCCAGTTCGAGTAAACAAATTTTCCTAATCTTTCTGTTCAAGCGCCATCTAC”, 0.843 RPM ratio (pull-down/input); in that of “GATGATTGTTCTCCCAGCTGATGAATTCTACGGTTCGAGTAAACAAATTTTCCTAATCTTTCTGTTCAAGCGCCATCTAC”, 0.799 RPM ratio (pull-down/input).
In the case of “GATGATTGTTCTCCCAGCTGATGAATTACTCCGGTCGAGTAAACAAATTTTCCTAATCTTTCTGTTCAAGCGCCATCTAC” it was 0.841 RPM ratio (pull-down/input); in that of “GATGATTGTTCTCCCAGCTGATGAATTGCGGGAATCGAGTAAACAAATTTTCCTAATCTTTCTGTTCAAGCGCCATCTAC”, 1.12 RPM ratio (pull-down/input).
“GATGATTGTTCTCCCAGCTGATGAATTCCCTTCCTCGAGTAAACAAATTTTCCTAATCTTTCTGTTCAAGCGCCATCTAC”: the binding signal is 0.831 RPM ratio (pull-down/input).
In the case of “GATGATTGTTCTCCCAGCTGATGAATTAAGTGAATCGAGTAAACAAATTTTCCTAATCTTTCTGTTCAAGCGCCATCTAC” it was 1 RPM ratio (pull-down/input).
In the case of “GATGATTGTTCTCCCAGCTGATGAATTCACATCTTCGAGTAAACAAATTTTCCTAATCTTTCTGTTCAAGCGCCATCTAC” it was 0.854 RPM ratio (pull-down/input); in that of “GATGATTGTTCTCCCAGCTGATGAATTGCGCCTTTCGAGTAAACAAATTTTCCTAATCTTTCTGTTCAAGCGCCATCTAC”, 1.13 RPM ratio (pull-down/input).
As to “GATGATTGTTCTCCCAGCTGATGAATTTGCGTGATCGAGTAAACAAATTTTCCTAATCTTTCTGTTCAAGCGCCATCTAC”, the binding signal is 1.08 RPM ratio (pull-down/input).
In the case of “GATGATTGTTCTCCCAGCTGATGAATTGACTACTTCGAGTAAACAAATTTTCCTAATCTTTCTGTTCAAGCGCCATCTAC” it was 1.04 RPM ratio (pull-down/input).
Consider “GATGATTGTTCTCCCAGCTGATGAATTCAATATGTCGAGTAAACAAATTTTCCTAATCTTTCTGTTCAAGCGCCATCTAC”, for which the binding signal was 1 RPM ratio (pull-down/input).
In the case of “GATGATTGTTCTCCCAGCTGATGAATTAAGATTATCGAGTAAACAAATTTTCCTAATCTTTCTGTTCAAGCGCCATCTAC” it was 0.971 RPM ratio (pull-down/input).
In the case of “GATGATTGTTCTCCCAGCTGATGAATTCCGTAAATCGAGTAAACAAATTTTCCTAATCTTTCTGTTCAAGCGCCATCTAC” it was 1.2 RPM ratio (pull-down/input); in that of “GATGATTGTTCTCCCAGCTGATGAATTTAACGGTTCGAGTAAACAAATTTTCCTAATCTTTCTGTTCAAGCGCCATCTAC”, 0.925 RPM ratio (pull-down/input).
